{"source": "patent US20050282216A1", "about": "(Sanofi, published 2005)", "binders": {"B1": {"name": "IL-13 (unlabelled) (ligand)", "chain": "not shown", "notes": "also called interleukin-13; unlabelled IL-13"}}, "target": "T1, human IL-13Rβ (human, UniProt Q14627 27-380)", "T1 construct": "Polypeptide of 380 amino acids; It stood natively on Caki-1 cells and recombinantly on COS-7 and CHO cells; also called hIL-13Rβ; cloned receptor", "T1 sequence": "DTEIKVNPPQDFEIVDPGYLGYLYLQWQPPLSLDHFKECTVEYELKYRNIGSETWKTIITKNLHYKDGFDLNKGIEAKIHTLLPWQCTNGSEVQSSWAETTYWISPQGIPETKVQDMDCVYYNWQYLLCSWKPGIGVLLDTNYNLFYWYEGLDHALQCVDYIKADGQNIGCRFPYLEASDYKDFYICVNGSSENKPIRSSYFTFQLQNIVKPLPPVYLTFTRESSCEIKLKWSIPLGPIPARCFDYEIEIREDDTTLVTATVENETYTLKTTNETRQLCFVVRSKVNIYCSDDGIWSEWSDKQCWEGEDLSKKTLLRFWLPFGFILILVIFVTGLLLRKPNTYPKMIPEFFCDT", "assay": "competition with labelled IL-13 on COS-7 cells transfected with IL-13Rβ cDNA"}
{"binder": "B1", "values": [{"measurement": "Ki", "value": 1.5, "unit": "nM"}]}
